# Positions count from the first letter of the chain named. The list shows a part of the results.
# T1: UNK ZnF1-3 (human, UniProt Q9C0B0 31-174)
# T1 sequence: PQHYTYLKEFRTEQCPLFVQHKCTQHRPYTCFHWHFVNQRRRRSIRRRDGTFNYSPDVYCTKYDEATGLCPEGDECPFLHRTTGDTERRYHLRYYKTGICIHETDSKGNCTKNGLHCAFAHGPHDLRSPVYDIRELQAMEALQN
# B1: chr11:18503389:18503390:-_ENSG00000074319_ENST00000251968|hu_hu|FALSE|FALSE (ssRNA)
# RNA: GGGAGUUCUACAGUCCGACGAUCAUUUUCCAUUUUUUCCAGAGCAGAACUGAGUUCUUCAUCCUUCUUUUUCAAAAGUUCUAUGUUUUUAUCAACCUCGGCUACUUCUUGAUCUAAACGGGUAACCAUCUCUUCCAGUUUCUGCAACAGAGGAUUGAGCAUCA
# B2: chr11:68312385:68312386:+_ENSG00000110075_ENST00000393800|hu_hu|motif|central (ssRNA)
# RNA: GGGAGUUCUACAGUCCGACGAUCCUUGCUGAAGAAACUGGCAAGUAGUGGAUUCAAAGGGGAAUCGUUUAGGAGGAAGCGGUAUAAUUUCAUUAGCAAGGAUUCAUCUUCUCCCAGUCUAUCAUUCAUCUGGGAGACAUCAGACAACAGAGGAUUGAGCAUCA
# B3: chr18:35731883:35731884:+_ENSMUSG00000037236_ENSMUST00000166793|perfect_dup|motif|central (ssRNA)
# RNA: GGGAGUUCUACAGUCCGACGAUCAAUGUUAAAUAUAGACUGCAAAUUAUGGGAAGAAGUACUAGCAGAAGACAGUGCACGGUGAGCUCCUUGUUGAUUCAAUGAAGAACUCAUUCCAAGAUUCAUUAAACUAGCAAGGCGUGCCAACAGAGGAUUGAGCAUCA
# B4: 220363083_220363729_1797_CDS_ENSG00000118873_ENST00000358951|human|control|control (ssRNA)
# RNA: GGGAGUUCUACAGUCCGACGAUCUUCCUUUAUUUCUGUUUCAACCAAAUCAAGAUUGGGAGAUUUUGUUUUCAGUAAGGCUGCUAGUUUCUUCACUAGGUGCAUAUCCUUGGCUCGUUCACUCUUCUUAUCACUCAGUGCUAACAACAGAGGAUUGAGCAUCA
# B5: chr16:5026692:5026693:-_ENSMUSG00000022536_ENSMUST00000115844|mus_hu|motif|central (ssRNA)
# RNA: GGGAGUUCUACAGUCCGACGAUCACCCAUUUUUAGCAAGUUGGAGACGAUUCCACUUCCCAUGAGACCAAGGCCCAAAAAUCCGGUCUUUUUGUCUGUGGGUGUGAUGCUGCCAUUCACGGCUGUGCUGUCAGCUGCCUGGAUCAACAGAGGAUUGAGCAUCA
# B6: chr3:150459880:150459881:-_ENSG00000181788_ENST00000312960|hu_hu|motif|central (ssRNA)
# RNA: GGGAGUUCUACAGUCCGACGAUCUUGUGAAGACAUAUGGAAUAAAACAUCUAUAAAAACCUUUAUUAAACAUAGAGCACGGUGCCCAAAUAAUUUUGAAGGUUUACGAAAGUCACAUCAUGGACAACAUGUAGAAAUAGUAACCAACAGAGGAUUGAGCAUCA
# B7: chr3:176767854:176767855:-_ENSG00000177565_ENST00000430069|hu_hu|hu_hu_hu_mus_False|48_58 (ssRNA)
# RNA: GGGAGUUCUACAGUCCGACGAUCGACAUCCUUGUUACUGGGCACGUCCUGCCCUCCUUCCCGUAUGCAGUGUCUAAGUACUAACUGUGUAGAGCCACUCGUGCUGUUCUCACUGAGGUUCCAGAUUCUUGCCGUGGAGUCUCCCAACAGAGGAUUGAGCAUCA
# B8: chr3:176767854:176767855:-_ENSG00000177565_ENST00000430069|hu_hu|hu_hu_hu_mus_False|18_88 (ssRNA)
# RNA: B7 RNA with C48U, U78C, U81G, A83G, U87C, A92G, G117A, G123U
# B9: chr2:73747280:73747281:-_ENSMUSG00000018770_ENSMUST00000018914|mus_mus|FALSE|FALSE (ssRNA)
# RNA: GGGAGUUCUACAGUCCGACGAUCCUUCAGUGAAGGGUUUCUGGCAUAACCAAUGAUAAGACUGCCAAAGACUGUUCCAAUACCAGCACCAGAACCAGCAACUCCUACUGUUGCAGCACCUGCACCAAUGAAUUUGGCAGCAGUCAACAGAGGAUUGAGCAUCA
# B10: chr11:68836070:68836071:+_ENSMUSG00000020898_ENSMUST00000116359|mus_mus|motif|central (ssRNA)
# RNA: GGGAGUUCUACAGUCCGACGAUCCCUCACAUACAGGCUUCCACUCCUACAUUCUUGUUCCGAAUCUCCCAAUAGGUCGGCGGGUGUCCCUAAAAGUAUCAGCUGCUCCCGGGGCAGGACGCCGUCCCCCGGCCGGCCUCCGCGCAACAGAGGAUUGAGCAUCA
# B11: chr12:93046693:93046694:-_ENSMUSG00000020964_ENSMUST00000021347|mus_mus|FALSE|FALSE (ssRNA)
# RNA: GGGAGUUCUACAGUCCGACGAUCUUGAGAGGAAUGCUGGCUGCCUCUCAAAGAUCUGCCUCUCUGUGGCCAUGUCUUCAAAUUUGGAGGCAAAUAUCUUCGAGGAAAAUUUUUGCUUCCUGGGUUUCCCAUAAUACUGUGAGCCAACAGAGGAUUGAGCAUCA
# B12: chr5:21280853:21280854:-_ENSMUSG00000029014_ENSMUST00000030771|mus_mus|FALSE|FALSE (ssRNA)
# RNA: GGGAGUUCUACAGUCCGACGAUCCUUAGCUUCACUUUUAGAAGGAACUGAGUUGUCAAAAGUAGGAUCUACACUGUUAAAUGCCCGCCUUUUCACUGGAUCAGACAACAUUUCAUAAGCUUUAGUUAUGCAAGUGAAGUAGUCCAACAGAGGAUUGAGCAUCA
# B13: chr1:229631779:229631780:-_ENSG00000069248_ENST00000261396|hu_hu|FALSE|FALSE (ssRNA)
# RNA: GGGAGUUCUACAGUCCGACGAUCUAAUUCCCAUUUACUGAUGUUUGAACUCGUCAGGCUAUAAAAGCUUGAUCUCUCUCUAUCCCAGAGAACACUUGAAAGUGUGAGAUCACUACUAGGAGAUAAAAUUCCAAAAAGAGAAGACAACAGAGGAUUGAGCAUCA
# B14: chr16:94664741:94664742:+_ENSMUSG00000040785_ENSMUST00000117648|mus_hu|mus_mus_mus_hu_False|78_108 (ssRNA)
# RNA: GGGAGUUCUACAGUCCGACGAUCUGGCAUGGAUCUUGGUAGCUGAUAUUCAGGAGAAAUGUUGGCCAAGGGUGUAUAUAUGCUGGUGUACUGGGGCAAACCUGGUAACACGUUUAUGUAUGCUGGCGGUGUCUGGGUGAUAUCCAACAGAGGAUUGAGCAUCA
# Molecular target: T1, UNK ZnF1-3
# Assay: nsRBNS (natural sequence RNA bind-n-seq); RBNS binding buffer (assumed for nsRBNS): 25 mM Tris pH 7.5, 150 mM KCl, 3 mM MgCl2, 0.01% Triton X-100, 500 ug/ml BSA, 20 U/ml SUPERase-In, 4 C; UNK is unkempt and MSI1 is Musashi-1; names of the RNAs are library labels; protein concentration not given here; high values mean tight binding
row,Binder,binding signal [enrichment R]
1,B1,0.477
2,B2,1.13
3,B3,0.929
4,B4,0.385
5,B5,0.693
6,B6,1.11
7,B7,0.583
8,B8,0.353
9,B9,0.899
10,B10,0.696
11,B11,0.852
12,B12,1.53
13,B13,0.956
14,B14,0.95

# Reference: paper PMC12136788
